# Test results reported in PubChem BioAssay AID2675 (National Center for Advancing Translational Sciences (NCATS), 2010).
# In all, about 280,000 compounds went through this assay and about 100 (0.036%) were called active. The shares of active, inactive and inconclusive entries below differ from those in the screen. Calls come from the whole dose curve; as a rule, active = well fitted inhibition curve with a large enough effect in the signal ratio, with a control signal flat (not every such curve was filed as active); inconclusive = small, poorly fitted or top-dose-only effect, or effect the other way, or a change in a side signal; inactive = no such curve, though single readings can be large or run the other way; the % refers to the signal ratio. Potencies of inconclusive entries are doubtful fits and often do not repeat. A note “side channel” means that the fit belongs to a control or component signal, not to the main read-out.
# Biological target: Muscleblind-like protein 1 (Homo sapiens) (UniProt Q9NR56)
# Assay: qHTS Assay for Inhibitors of MBNL1-poly(CUG) RNA binding
# Conditions: TR-FRET MBNL1-His/biotin-(CUG)12 binding, 665/545 ratio; activity change, negative = inhibition: at 57.5 µM (top of the series)
# Procedure, shortened: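 TR-FRET readout: Ex 340 nm, 665/545 nm emission ratio, normalized to buffer-only (basal) and MBNL1-(CUG)12 controls. Complex of MBNL1-His with Biotin-(CUG)12, compounds 92 nM–58 uM, incubated 60 min at room temperature.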
# % is set by controls: 0 for no effect and ±100 for the full control effect; potency is the fitted concentration of half-maximal effect; tags give direction and shape of the fitted curve or compound fluorescence and quenching.
# Chain of UniProt Q9NR56 (Q9NR56 whole entry, looked up): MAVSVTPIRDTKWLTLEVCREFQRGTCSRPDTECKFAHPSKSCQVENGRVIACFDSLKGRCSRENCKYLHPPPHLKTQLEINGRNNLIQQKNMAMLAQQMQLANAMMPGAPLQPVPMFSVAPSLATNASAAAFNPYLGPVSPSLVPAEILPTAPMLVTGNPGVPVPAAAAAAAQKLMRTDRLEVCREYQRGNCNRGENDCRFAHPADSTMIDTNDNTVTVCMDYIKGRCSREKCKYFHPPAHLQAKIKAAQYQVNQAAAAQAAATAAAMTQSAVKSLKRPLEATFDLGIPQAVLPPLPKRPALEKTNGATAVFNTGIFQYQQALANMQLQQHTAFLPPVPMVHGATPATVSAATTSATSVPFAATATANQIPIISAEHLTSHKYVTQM
Structure (SMILES),Potency,"activity change, negative = inhibition"
O=C(O)C1Nc2c(O)cc(Cl)c([N+](=O)[O-])c2C2C=CCC12 (stereo not drawn),"inconclusive: 20 µM [quencher, side channel, single point]",
O=c1[nH]c(SCc2ccc([N+](=O)[O-])cc2)nc2[nH]ncc12,"inconclusive: 3.98 µM [quencher, side channel, full curve]",
COc1cccc2sc3ccc(NCCC4CCCN4C)cc3c(=O)c12 (stereo not drawn),"inconclusive: 14.1 µM [quencher, partial curve]",
Cc1ccnc(Sc2ccc([N+](=O)[O-])cn2)n1,"inconclusive: 2.82 µM [quencher, side channel, full curve]",
O=C(O)c1ccc(NC2=C(Cl)C(=O)c3ccccc3C2=O)cc1,"inconclusive: 3.55 µM [quencher, side channel, full curve]",
COCCCNCCOCCOc1ccc(C)cc1Br,"inconclusive: 0.1 µM [fluorescent, side channel, full curve]",
CCOCCCNC(=O)c1cc2c(=O)n3cccc(C)c3nc2s1,"inconclusive: 2.82 µM [quencher, side channel, full curve, poor fit]",
CC1CCN(CCCOc2ccc(OCc3ccccc3)cc2)CC1,,inactive: -0.279%
Cc1ccc(O)c(N=Nc2ccc(S(=O)(=O)N3CCOCC3)cc2)c1,"inconclusive: 1.12 µM [quencher, side channel, full curve]",
N/C(=N\N=C/c1ccc(F)cc1)N/N=C\c1ccc(F)cc1,,inactive: -5.64%
COC(=O)c1sc(NC(=O)COc2ccc(C)cc2)nc1C,"inconclusive: 39.8 µM [quencher, single point]",
Cc1ccc(OCCN2CCN(c3ncnc4sc(C)c(C)c34)CC2)cc1,,inactive: 1.42%
Cc1ccccc1C(=O)NC(CC(C)C)C(=O)OCc1cc(=O)n2cc(Br)ccc2n1 (stereo not drawn),,inactive: 103%
Cc1cccc(C)c1Nc1nnc(SCC(=O)c2ccc(Br)s2)s1,"inconclusive: 7.08 µM [quencher, side channel, single point]",
COc1cc(/C=C2\C(=O)NN(c3ccc(C)cc3)C2=O)cc([N+](=O)[O-])c1O,"inconclusive: 14.1 µM [quencher, partial curve]",
COc1ccc(NC(=O)/C=C/c2ccccc2[N+](=O)[O-])c(OC)c1,"inconclusive: 4.47 µM [quencher, side channel, partial curve]",
O=C(Cn1nnc2ccccc2c1=O)Nc1ccc(S(=O)(=O)N2CCOCC2)cc1,,inactive: 2.17%
COc1ccc(CNC(=O)CN(C(=O)c2csnn2)c2ccc(C(C)=O)cc2)cc1,,inactive: 2.04%
COc1cc(C(=O)Nc2ccc(C#N)cc2)c([N+](=O)[O-])cc1OC,"inconclusive: 22.4 µM [quencher, side channel, partial curve]",

Structure (SMILES),Potency,"activity change, negative = inhibition"
O=C(CN1C(=O)S/C(=C/c2ccc(N3CCOCC3)cc2)C1=O)N1CCOCC1,"inconclusive: 7.94 µM [quencher, side channel, partial curve, poor fit]",
O=C(N/N=C1\CCCc2ccccc21)c1ccc([N+](=O)[O-])cc1,"inconclusive: 8.91 µM [quencher, side channel, partial curve]",
O=C(OCC(=O)N1CCN(C(=O)c2ccco2)CC1)c1cc(-c2ccccc2)nc2ccccc12,"inconclusive: 17.8 µM [quencher, side channel, partial curve]",
CCN(CC(=O)Nc1ccc([N+](=O)[O-])cc1OC)c1ccccc1,"inconclusive: 39.8 µM [quencher, side channel, single point]",
COc1ccc(C)cc1-n1nnnc1SCC(=O)NNC(=O)c1ccc([N+](=O)[O-])cc1,"inconclusive: 3.55 µM [quencher, side channel, partial curve]",
CN1CCN(CCCNC(=O)c2cc3c(=O)n(C)c4ccccc4c3s2)CC1,"inconclusive: 20 µM [quencher, side channel, partial curve]",
CCN(CC)c1ccc2ccc(=O)oc2c1,"inconclusive: 17.8 µM [quencher, side channel, partial curve]",
CCN(CC(=O)NCc1ccc(Cl)cc1)C(=O)/C=C/c1ccco1,"inconclusive: 28.2 µM [quencher, side channel, single point]",
CCN(CC)c1ccc2cc(C=O)c(=O)oc2c1,"inconclusive: 14.1 µM [quencher, partial curve]",
Cc1ccc(NC2=NCC(=O)N2CCc2ccccc2)cc1C,"inconclusive: 0.708 µM [quencher, side channel, single point]",
CC(=O)C1=C(O)C(=O)N(c2ccc(C(=O)O)cc2)C1c1ccc([N+](=O)[O-])cc1 (stereo not drawn),"inconclusive: 14.1 µM [quencher, side channel, partial curve]",
Cc1cc(/C=N/NC(=O)c2ccccn2)c(C)n1-c1cccc([N+](=O)[O-])c1,"inconclusive: 15.8 µM [quencher, side channel, single point]",
CCOC(=O)N1CCN(c2nc3ccccn3c(=O)c2C=O)CC1,"inconclusive: 25.1 µM [quencher, side channel, partial curve]",
Cc1cc([N+](=O)[O-])ccc1NCc1ccco1,"inconclusive: 25.1 µM [quencher, side channel, single point]",
CCc1nnc(NC(=O)c2ccc(S(=O)(=O)N(CC(C)C)CC(C)C)cc2)o1,,inactive: -9.91%
Cc1ccc(/C=N/NC(=O)CNC(=O)Cc2ccccc2)o1,"inconclusive: 28.2 µM [quencher, side channel, single point]",
COC(=O)N/N=C/c1ccc(-c2cc(Cl)cc(Cl)c2)o1,"inconclusive: 31.6 µM [quencher, side channel, single point]",
CN(C/C=C/c1ccccc1[N+](=O)[O-])Cc1ccccc1,"inconclusive: 44.7 µM [quencher, side channel, partial curve, poor fit]",
CN(C)C(=O)Nc1ccccc1CC[N+](=O)[O-],,inactive: -2.19%
